In article PMC5468090, “Mutational phospho-mimicry reveals a regulatory role for the XRCC4 and XLF C-terminal tails in modulating DNA bridging during classical non-homologous end joining” (eLife, 2017):

Molecular target: T1, XRCC4-WT (human, UniProt Q13426 1-336)
T1 construct: full-length (WT) protein; also called wild-type XRCC4; WT XRCC4; source: produced in bacteria, purified (procedures as described in Andres et al., 2012, 2007)
Assay: cross-linking; XRCC4 and XLF each at 20 μM, no DNA; 150 mM KCl, 20 HEPES pH 8, 1 mM EDTA, 2 mM DTT, 10% glycerol; 20 min at 4°C, then BS3, 1 hr at room temperature; reducing SDS-PAGE, Coomassie
Details: both partners purified

T1 sequence (Q13426 whole entry): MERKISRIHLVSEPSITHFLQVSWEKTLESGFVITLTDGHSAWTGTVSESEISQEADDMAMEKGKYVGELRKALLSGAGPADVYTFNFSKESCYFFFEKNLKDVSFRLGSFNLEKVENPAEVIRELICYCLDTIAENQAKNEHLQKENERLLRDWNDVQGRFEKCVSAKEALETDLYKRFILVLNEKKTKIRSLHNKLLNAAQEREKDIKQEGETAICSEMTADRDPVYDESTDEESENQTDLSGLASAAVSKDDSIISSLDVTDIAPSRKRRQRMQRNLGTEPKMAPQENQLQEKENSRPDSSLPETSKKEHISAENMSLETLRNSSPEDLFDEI

binding result: binds
B1: XLF-L115A (natural protein)
chain: not shown
notes: XLF, human, […], with the point mutation L115A; source: produced in bacteria, purified (procedures as described in Andres et al., 2012, 2007)
